Among all 290,000 compounds or so, about 1,100 (0.38%) were called active. Inconclusive results, whose numbers are uncertain, are shown with a selection of clear calls. Calls come from the whole dose curve; as a rule, active = well fitted inhibition curve with a large enough effect; inconclusive = small, poorly fitted or top-dose-only effect, or another doubt; inactive = no such curve, though single readings can be large or run the other way. A potency beside an inconclusive call is a rough fit, not a confirmed value.
The compounds below were run against Pyruvate kinase (Leishmania mexicana) (UniProt Q27686) (assay: qHTS Assay for Inhibitors of Leishmania Mexicana Pyruvate Kinase (LmPK)). Details: purified LmPK, Kinase-Glo ATP luminescence, 1 h; activity change, negative = inhibition: at 57.5 µM (top of the series) unless noted.
UniProt Q27686, sequence (Q27686 whole entry, looked up): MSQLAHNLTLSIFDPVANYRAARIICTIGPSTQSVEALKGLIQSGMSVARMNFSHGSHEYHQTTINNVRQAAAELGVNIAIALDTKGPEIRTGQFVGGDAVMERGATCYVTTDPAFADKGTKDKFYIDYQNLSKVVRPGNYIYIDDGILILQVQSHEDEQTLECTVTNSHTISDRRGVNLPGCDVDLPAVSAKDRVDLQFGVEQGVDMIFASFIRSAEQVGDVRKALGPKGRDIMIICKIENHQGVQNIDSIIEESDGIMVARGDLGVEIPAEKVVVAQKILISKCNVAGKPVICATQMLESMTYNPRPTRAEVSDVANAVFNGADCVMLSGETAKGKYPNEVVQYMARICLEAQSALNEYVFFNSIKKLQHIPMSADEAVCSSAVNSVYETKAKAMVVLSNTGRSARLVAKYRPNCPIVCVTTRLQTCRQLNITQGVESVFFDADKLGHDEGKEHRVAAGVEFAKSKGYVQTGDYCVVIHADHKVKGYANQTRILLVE
Method in brief: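 Purified LmPK (0.1 nM) converted ADP (0.1 mM) to ATP with PEP (0.5 mM) in imidazole buffer pH 7.2 with KCl and MgCl2, 1 h at room temperature. ATP was read by Kinase-Glo luminescence; data normalized to uninhibited and no-enzyme controls.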
% is set by controls: 0 for no effect and ±100 for the full control effect; potency is the fitted concentration of half-maximal effect; tags give direction and shape of the fitted curve.

Row | Structure (SMILES) | Potency | activity change, negative = inhibition
1 | Cc1ccc(-c2nc(-c3ccccc3)no2)cc1 | inconclusive: 12.6 µM [falling, partial curve] | 
2 | Cc1[nH]c2ccccc2c1CC#N |  | inactive: -1.17%
3 | CCN1/C(=C2\C(=O)N(C)C(=S)N2c2ccccc2)C=Cc2ccccc21 | active: 17.8 µM | 
4 | COc1ccc(NC(=O)CN(c2ccc(OC)c(Cl)c2)S(=O)(=O)c2ccccc2)cc1 |  | inactive: 4.03%
5 | COc1cccc(CSc2nc3ccncc3[nH]2)c1 | active: 25.1 µM | 
6 | CC(=Nc1cc(C(=O)c2ccccc2)ccc1N)C1=C(O)CC(C)(C)CC1=O |  | inactive: -0.125%
7 | COc1ccc(Nc2cc(C(=O)NCCCN3CCN(C)CC3)c3ccccc3n2)cc1OC | inconclusive: 39.8 µM [falling, single point] | 
8 | O=C(/C=C/c1ccco1)Nc1ccccc1C(=O)O | inconclusive: 31.6 µM [falling, partial curve] | 
9 | CC(c1ccccc1)n1c(-c2ccc(Cl)cc2)n[nH]c1=S (stereo unspecified) | inconclusive: 39.8 µM [falling, single point] | 
10 | O=c1c(-c2ccc(F)cc2)coc2cc(O)ccc12 | inconclusive: 15.8 µM [falling, partial curve] | 
11 | CCOc1ccc(N(C)S(=O)(=O)c2ccc(-c3cc(C)no3)s2)cc1 |  | inactive: 4.14%
12 | CCCn1c(/C=C/c2ccccc2)nc2ccccc21 | inconclusive: 25.1 µM [falling, partial curve] | 
13 | COc1cccc(C(=O)Nc2cccc(OC(C)=O)c2)c1 | active: 25.1 µM | 
14 | Nc1nc2c(nc(SCc3ccccc3Br)n2[C@@H]2O[C@H](CO)[C@@H](O)[C@H]2O)c(=O)[nH]1 |  | inactive: -0.474%
15 | O=[N+]([O-])c1cccc(-c2nc(-c3ccccn3)no2)c1 | inconclusive: 20 µM [falling, partial curve] | 
16 | O=C1CCCC(O)=C1C(C#Cc1ccccc1)C1=C(O)CCCC1=O | inconclusive: 25.1 µM [falling, partial curve] | 
17 | COc1cc(N2C(=O)C=CC2=O)c(OC)cc1Cl | active: 14.1 µM | 
18 | COc1ccc(-c2noc(-c3ccoc3C)n2)cc1OC |  | inactive: -2.68%
19 | Cc1cc(=O)[nH]c(SCC(=O)N2CCc3ccccc3C2)n1 | inconclusive: 6.31 µM [falling, single point] | 
20 | c1ccc(-c2nc3ccccc3[nH]2)nc1 | inconclusive: 15.8 µM [falling, partial curve] | 
21 | O=C(/C=C/Nc1ccc(F)cc1Br)c1ccccc1 | inconclusive: 15.8 µM [falling, partial curve] | 
22 | Brc1ccc(-c2nnc(-c3cccc(Br)c3)o2)cc1 |  | inactive: -1.6%
23 | O=C(O)c1ccc2ncc(NC(=O)c3ccc(F)cc3)c(=O)n2c1 | inconclusive: 25.1 µM [falling, single point] | 
24 | CN=C1C=C/C(=N/N=c2\ccn(O)cc2C)C=C1C | inconclusive: 25.1 µM [falling, partial curve] | 
25 | O=C(Nc1nccs1)c1cn2ccccc2n1 | active: 25.1 µM | 
26 | Cc1csc(NC(=O)c2cc3c(s2)CCCC3)n1 | inconclusive: 15.8 µM [falling, partial curve] | 

Row | Structure (SMILES) | Potency | activity change, negative = inhibition
27 | OCCNCc1c(OCc2ccc(Cl)cc2)ccc2ccccc12 |  | inactive: -3.8%
28 | Cc1ccc(C(=O)Nc2ccc3c(c2)OCCO3)c(C)c1 | inconclusive: 15.8 µM [falling, partial curve] | 
29 | Cc1ccc(NC(=O)N2CCc3ccccc32)cc1 | active: 25.1 µM | 
30 | S=c1[nH]cc(-c2ccccc2)n1-c1ccccc1Cl | inconclusive: 12.6 µM [falling, partial curve] | 
31 | O=C(COC(=O)C(c1ccccc1)c1ccccc1)NCc1ccco1 |  | inactive: -0.605%
32 | Cc1cc(C)nc(SCc2ccc(C(=O)N/N=C/c3ccncc3)cc2)n1 |  | inactive: 8.97% [at 11.5 µM]
33 | Cc1cc(NC(=O)c2ccc3c(c2)OCCO3)ccc1NC(=O)c1ccco1 | inconclusive: 14.1 µM [falling, partial curve] | 
34 | CN(C)CCCSc1ccccc1NC(=O)/C=C/c1ccccc1 | inconclusive: 28.2 µM [falling, single point] | 
35 | Cc1cc(NC(=O)c2ccc3c(c2)OCCO3)no1 | inconclusive: 25.1 µM [falling, partial curve] | 
36 | O=C(O)c1ccc(/C=C2\SC(=S)N(Nc3ccccc3)C2=O)cc1 | inconclusive: 28.2 µM [falling, single point] | 
37 | CC(C)Oc1cccc(C(=O)NC2=NCCS2)c1 |  | inactive: -0.0186%
38 | COc1ccc(NC(=O)c2ccc(-n3nc(C)cc3C)cc2)cc1OC |  | inactive: -0.927%
39 | COC(=O)c1ccc(OCC(=O)c2ccccc2)cc1 | inconclusive: 12.6 µM [falling, partial curve] | 
40 | Cc1cc(NS(C)(=O)=O)c(=O)n(Cc2c(F)cccc2Cl)c1 |  | inactive: -4.51%
41 | Nc1cccc(C(=O)OCC(=O)c2ccccc2)c1 | inconclusive: 14.1 µM [falling, partial curve] | 
42 | Cc1ccc(-n2[nH]c(=O)c(-c3ccccn3)c2C)cc1 | inconclusive: 22.4 µM [falling, partial curve] | 
43 | Cc1ccc(C(=O)Nc2ncc(Cc3ccccc3)s2)o1 | inconclusive: 22.4 µM [falling, single point] | 
44 | CCC(C)Nc1cc(C)c(C#N)c2nc3ccccc3n12 (stereo unspecified) | inconclusive: 4.47 µM [falling, single point] | 
45 | COc1ccccc1OCc1ccc(C(=O)Nc2ccc(Cl)cn2)o1 |  | inactive: 4.71%
46 | Cc1ccc(O)c(/C=N/NC(=O)c2[nH]ncc2Br)c1 | inconclusive: 15.8 µM [falling, partial curve] | 
47 | COC(=O)/N=C(/Cc1ccc(OC)cc1)c1ccc(OC)cc1 | inconclusive: 31.6 µM [falling, single point] | 
48 | O=[N+]([O-])c1cccc(-c2n[nH]c(=S)n2-c2ccccc2)c1 | inconclusive: 22.4 µM [falling, partial curve] | 
49 | Cc1ccc2nc(-c3ccccn3)[nH]c2c1 | active: 22.4 µM | 
50 | CN(C)S(=O)(=O)c1ccc(-c2cn3ccccc3n2)cc1 | inconclusive: 25.1 µM [falling, partial curve] | 
51 | CCOc1ccc(C(=O)NCCc2ccccc2)cc1 | inconclusive: 25.1 µM [falling, partial curve] | 

— PubChem BioAssay AID1721 (National Center for Advancing Translational Sciences (NCATS), 2009)
